Reference: the GPR68 mutational scans of Howard et al. (2025)
The least precise scores are not listed. The source holds two more conditions with little spread; they are left out. In variant names, del marks residues removed and ins residues inserted between the two positions. For some assays here: The concentration of ogerin is not given here.

B1: GPR68, Q15743 (parent)
chain: MGNITADNSSMSCTIDHTIHQTLAPVVYVTVLVVGFPANCLSLYFGYLQIKARNELGVYLCNLTVADLFYICSLPFWLQYVLQHDNWSHGDLSCQVCGILLYENIYISVGFLCCISVDRYLAVAHPFRFHQFRTLKAAVGVSVVIWAKELLTSIYFLMHEEVIEDENQHRVCFEHYPIQAWQRAINYYRFLVGFLFPICLLLASYQGILRAVRRSHGTQKSRKDQIQRLVLSTVVIFLACFLPYHVLLLVRSVWEASCDFAKGVFNAYHFSLLLTSFNCVADPVLYCFVSETTHRDLARLRGACLAFLTCSRTGRAREAYPLGAPEASGKSGAQGEEPELLTKLHPAFQTPNSPGSGGFPTGRLA

Legend:
[1] = variants of: B1; test: cAMP reporter score (Enrich2 score, wild type = 0); higher = more signal; HEK293T, FACS bins
[2] = variants of: B1; test: surface expression score (Enrich2 score, wild type = 0); higher = more signal; HEK293T, FACS bins

Variant | cAMP reporter score ([1]; pH 5.5) | cAMP reporter score ([1]; pH 6) | cAMP reporter score ([1]; pH 6, modulator: ogerin) | cAMP reporter score ([1]; pH 6.5, modulator: ogerin) | surface expression score [2]
K220W | -0.839 | -0.522 | -0.874 | -1.54 | 0.766
K220Y | -0.662 | 0.001 | 0.222 | -0.295 | -0.165
K220_S221insGS | -0.741 | -0.754 | -0.939 | -0.432 | 0.546
K220del | -1.3 | -1.12 | -0.748 | -0.642 | -0.335
S221_R222insG | -1.41 | -0.678 | -1.49 | -0.891 | -0.124
S221del | 0.237 | 0.517 |  | 1.57 | 1.3
R222_D224del | -0.878 |  | -1.42 | -0.77 | 0.871
K223A | 0.067 | -0.72 | -0.669 | -2.78 | 
K223C | -0.383 | -0.153 | -0.693 | 0.142 | 1.77
K223D | -1.05 |  | -1.06 | -1.17 | 0.306
K223E | -1.08 | -0.701 | -1.52 | -1.13 | -0.033
K223F | -0.685 |  | -0.646 | 0.086 | 1.58
K223G | -1.71 | -0.499 | -1.1 | -1.89 | 1.3
K223H | -1.83 |  | -0.287 | -0.9 | 0.962
K223I | -0.366 | -1.4 | -1.51 | -0.673 | 1.49
K223L | -0.889 | -0.144 | -0.934 | -0.948 | 1.37
K223M | -1.24 |  | -1.26 | -0.475 | 1.35
K223N | -0.926 | -0.432 | -1.59 | -1.52 | 0.448
K223P | -1.35 | 0.471 | -1.38 | -1.28 | -0.576
K223Q | -0.128 | -1.19 | 0.197 | -0.315 | 1.37
K223R | -0.444 | -0.786 | -0.229 | -1.09 | 0.666
K223S | -0.896 | -1.56 | -1.92 | -1.43 | 1.47

Variant | cAMP reporter score ([1]; pH 5.5) | cAMP reporter score ([1]; pH 6) | cAMP reporter score ([1]; pH 6, modulator: ogerin) | cAMP reporter score ([1]; pH 6.5, modulator: ogerin) | surface expression score [2]
K223T | -0.663 | -0.778 | -0.892 | -0.794 | 2.34
K223V | -1.05 | -1.16 | -0.973 | -1.46 | 0.547
K223W | -1.5 | -0.758 | -2 | -1.69 | -0.696
K223Y | -1.02 |  |  | -2.53 | 0.625
K223_D224del | -1.46 | -1.47 | -1.24 | -0.939 | 1.15
K223_Q225del | 1.26 | 0.013 | 1.24 | -0.555 | 0.947
K223del | -0.23 | -0.246 |  | -0.913 | 1.43
D224A | 1.3 | 1.85 | 0.778 | 0.822 | 0.844
D224E | 1.32 | 1.97 | 1.43 | 1.38 | 1.08
D224F | 0.668 | -0.858 | 0.564 | -0.456 | 1.26
D224G | 0.344 | -0.718 |  | -1.57 | 0.874
D224H | 0.23 | 0.461 | 0.348 | -0.281 | 0.347
D224I | 0.02 | -0.521 | 1.2 | -0.238 | 1.45
D224L | -0.171 | -0.858 | -0.442 | -0.164 | 0.27
D224N | -0.415 | 0.217 | -0.673 | -0.573 | -0.228
D224P | -0.503 | -0.789 | 0.056 | -0.642 | 1.37
D224Q | -0.464 | -0.185 | -0.043 | -0.31 | -0.016
D224R | -0.594 | 2.63 | 0.221 | 1.28 | 0.336
D224S | -0.761 | -1.55 | -2.17 | -1.49 | 0.218
D224T | 0.413 | 1.51 | -0.516 | -0.455 | 
D224V | 0.74 | 0.568 | 1 | 1.31 | 0.8
D224W | -0.341 |  | -0.446 | 0.721 | 0.15

Variant | cAMP reporter score ([1]; pH 5.5) | cAMP reporter score ([1]; pH 6) | cAMP reporter score ([1]; pH 6, modulator: ogerin) | cAMP reporter score ([1]; pH 6.5, modulator: ogerin) | surface expression score [2]
D224Y | -0.418 | -0.347 | -1.29 | -1.11 | -0.803
D224_I226del | -0.427 | -0.656 | -0.699 | -1.7 | 0.889
D224_Q225del | -1.1 | -2.06 | -1.1 | -1.14 | 0.037
D224_Q225insG | -0.565 | -0.136 | -1.01 | -0.509 | 0.761
Q225_I226del | -0.022 | -0.867 |  | -0.071 | 1.78
Q225_I226insGS | -1.64 | -1.33 | -1.52 | -1.71 | -0.777
Q225_Q227del | -1.72 |  | -1.39 | -1.08 | 0.306
I226_Q227insG | -1.77 | -0.789 | -1.64 | -0.821 | 0.672
I226_Q227insGS | -0.838 | -0.409 | -1.07 | -0.72 | 1.6
I226_R228del | -1.55 | -0.623 | -2.47 | -1.04 | -0.399
I226del | -2.17 | -0.884 |  |  | -0.182
Q227_L229del | -2.02 | -1.23 | -1.07 | -1.45 | 0.093
Q227del | -1.97 | -0.348 | -1.76 | -0.532 | -0.063
L229_V230insGS | -1.03 |  | -1.04 | -0.909 | -2.79
V230_L231insG | -2.27 | -1.62 | -1.17 | -0.627 | 
V230del | -1.9 | -2.02 |  | -1.57 | -2.42
L231A | -0.237 |  | 0.165 | -0.131 | -0.603
L231C | -0.19 | 2.9 | -0.14 | 0.656 | 0.698
L231D | -0.606 | -1.59 | -1.34 | -1.04 | -3.5
L231E | -0.65 | -2.31 | -0.726 | -0.975 | -2.05
